Experimental data reported in PubChem BioAssay AID1030 (National Center for Advancing Translational Sciences (NCATS), 2008).
In all, about 220,000 compounds went through this assay and about 16,000 (7.3%) were called active. Inconclusive results, whose numbers are uncertain, are shown with a selection of clear calls. Calls follow the shape of the dose curve; as a rule, active = well fitted inhibition curve with a large enough effect (not every such curve was filed as active); inconclusive = small, poorly fitted or top-dose-only effect, or another doubt; inactive = no such curve, though single readings can be large or run the other way. No potency is given beside an inconclusive call; the fits are too rough.

molecular target: Aldehyde dehydrogenase 1A1 (Homo sapiens) (UniProt P00352); experiment: qHTS Assay for Inhibitors of Aldehyde Dehydrogenase 1 (ALDH1A1); conditions: Purified ALDH1A1, NADH fluorescence, propionaldehyde substrate; series mostly up to 75.3 µM; activity, negative = inhibition: at the top concentration;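 as to activity, negative = inhibition: plate controls were no enzyme wells and a reference inhibitor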
Sequence of UniProt P00352 (P00352 whole entry, looked up): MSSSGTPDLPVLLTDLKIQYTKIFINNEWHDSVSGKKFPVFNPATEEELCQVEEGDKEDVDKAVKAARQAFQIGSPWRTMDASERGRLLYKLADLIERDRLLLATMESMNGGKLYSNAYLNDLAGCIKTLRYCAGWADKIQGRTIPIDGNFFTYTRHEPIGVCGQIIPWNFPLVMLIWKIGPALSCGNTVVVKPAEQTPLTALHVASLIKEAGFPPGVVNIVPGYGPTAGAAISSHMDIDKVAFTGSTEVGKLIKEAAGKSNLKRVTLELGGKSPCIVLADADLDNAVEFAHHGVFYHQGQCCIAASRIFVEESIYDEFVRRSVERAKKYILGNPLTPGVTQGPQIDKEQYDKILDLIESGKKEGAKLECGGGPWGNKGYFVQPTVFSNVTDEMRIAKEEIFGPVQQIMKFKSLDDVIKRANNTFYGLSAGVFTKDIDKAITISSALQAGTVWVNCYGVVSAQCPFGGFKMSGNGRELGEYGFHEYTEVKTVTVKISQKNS
Potency is read from the fitted curve at half-maximal effect; tags tell the direction and shape of the fitted curve.

SMILES | Potency | activity, negative = inhibition
CCOCCN1CCN(c2nnc3n2-c2ccc(Cl)cc2C(c2ccccc2Cl)=NC3)CC1 | inconclusive [inhibitor, single point] | 
C=COC(C)=O |  | inactive: 7.29%
O=c1[nH]c(=O)n(C2CCCCCC2)c(O)c1C=NCCCN1CCOCC1 | inconclusive [inhibitor, single point] | 
Cc1ccc(-c2nc3ccccc3c(=O)n2-c2nccs2)cc1 | inconclusive [inhibitor, single point] | 
CCOP(=O)(OCC)c1nc(-c2cccc3ccccc23)oc1N1CCCCC1 | inconclusive [inhibitor, partial curve] | 
CCOP(=S)(OCC)N1CCOCCOCCN(P(=S)(OCC)OCC)CCOCCOCC1 |  | inactive: -13.8%
C[C@]12Cc3cn4c(nc3C=C1CCC1C2CC[C@@]2(C)[C@H]1CC[C@@]2(O)C#N)nc1ccccc14 (stereo not given in full) | inconclusive [inhibitor, partial curve] | 
c1cnc(N2CCNCC2)nc1 | inconclusive [inhibitor, partial curve] | 
Cc1sc(-n2c(C)cc(C=C3C(=O)NC(=O)NC3=O)c2C)c(C#N)c1C | active: 0.631 µM | 
O=[N+]([O-])c1cc(F)c(N2CCCCCC2)cc1N1CCNCC1 | active: 7.08 µM | 
COc1cc(O)c(C(=O)c2ccccc2)cc1S(=O)(=O)O | active: 12.6 µM | 
CCC(C)/C=C(C)/C=C/C1=CC2=C(Cl)C(=O)C(C)(OC(C)=O)C(=O)C2=CO1 (stereo not given) | inconclusive [inhibitor, single point] | 
C#CCOS(=O)OC1CCCCC1Oc1ccc(C(C)(C)C)cc1 (stereo not given) | inconclusive [inhibitor, single point] | 
CCOP(=O)(OCC)Oc1cc(C)c(N(C)C)c(C)c1 |  | inactive: -2.44%
CC(C)C1C(=O)N2CCCC2[C@]2(O)O[C@@](NC(=O)[C@@H]3C=C4c5cccc6[nH]cc(c56)C[C@H]4N(C)C3)(C(C)C)C(=O)N12 (stereo not given in full) | inconclusive [inhibitor, partial curve] | 
O=[N+]([O-])CCO | active: 17.8 µM | 
CCCCC/C=C\C/C=C\C/C=C\C/C=C\CCCC(=O)N(Cc1ccc(O)c(Cl)c1)Cc1ccc(O)c(Cl)c1 | active: 3.55 µM | 
Oc1c(Br)cc(Br)cc1Br |  | inactive: -0.596%
COC(=O)c1c(C)ccc2c(O)c3c(cc12)C(=O)c1c2c(cc(O)c1C3=O)[C@@]1(C)O[C@@](C)(O2)[C@@H](O)[C@H](N(C)C)[C@H]1O | inconclusive [inhibitor, partial curve] | 
CN(C)C(=S)SC(=S)N(C)C | active: 3.55 µM | 
